Measurements: the antibiotic and cytotoxicity screens of Wong et al. (2023)
This is one part of the list.

Experiments:
[1] = tested on: HSkMC (human skeletal muscle cells); experiment: cytotoxicity call (relative viability < 0.9); conditions: 10 µM
[2] = tested on: HepG2; experiment: cytotoxicity call (relative viability < 0.9); conditions: 10 µM
[3] = tested on: S. aureus RN4220; experiment: growth inhibition call (relative growth <= 0.2); conditions: 50 µM

Structure (SMILES)	cytotoxicity call [1]	cytotoxicity call [2]	growth inhibition call [3]
CN(C)CCCNC(=O)C[C@@H]1C=C[C@H](NC(=O)Cc2cccnc2)[C@H](CO)O1	inactive	inactive	inactive
C[C@@H]1CCCCO[C@@H](CN(C)CC2CC2)[C@H](C)CN([C@H](C)CO)C(=O)c2cc(NC(=O)Nc3ccc(F)cc3)ccc2O1	inactive	inactive	inactive
CNCc1nc(C)no1	inactive	inactive	inactive
C[C@H](CO)N1C[C@H](C)[C@@H](CN(C)Cc2ccc(-c3ccccc3)cc2)Oc2ccc(NS(=O)(=O)c3ccc(F)cc3)cc2C1=O	inactive	active	inactive
Cc1ccc(S(=O)(=O)Nc2ccc3c(c2)C(=O)N([C@@H](C)CO)C[C@@H](C)[C@H](CN(C)S(=O)(=O)c2ccc(C)cc2)OCCCC[C@@H](C)O3)cc1	inactive	active	inactive
Cn1c(=O)c2c(NCCc3ccc(S(N)(=O)=O)cc3)ccnc2n(C)c1=O	inactive	inactive	inactive
C[C@@H]1CCCCO[C@H](CN(C)Cc2ccc(Cl)c(Cl)c2)[C@H](C)CN([C@@H](C)CO)C(=O)c2cc(NS(=O)(=O)c3cn(C)cn3)ccc2O1	inactive	inactive	inactive
CCCN1C[C@@H](C)[C@@H](OC)CN(C)C(=O)c2cc(NS(=O)(=O)c3cn(C)cn3)ccc2OC[C@H]1C	inactive	inactive	inactive
COc1ccc2c3c(n(c2c1)C)[C@@H](CO)N(Cc1cc(cc(c1)OC)OC)C[C@]13CN(C1)C(=O)CN1CCOCC1	inactive	inactive	inactive
COc1ccc(NC(=O)N(C)C[C@H]2OCCCC[C@@H](C)Oc3ccc(NC(=O)C4CCCCC4)cc3C(=O)N([C@@H](C)CO)C[C@H]2C)cc1	inactive	inactive	inactive
NC(=O)C1CCNCC1	inactive	inactive	inactive
C[C@H](CO)N1C[C@H](C)[C@H](CN(C)C(=O)NC2CCCCC2)OCCCC[C@H](C)Oc2ccc(NC(=O)Nc3cccc4ccccc34)cc2C1=O	inactive	inactive	inactive
COc1ccc(S(=O)(=O)N(C)C[C@@H]2Oc3ccc(NS(=O)(=O)c4c(C)noc4C)cc3CC(=O)N([C@H](C)CO)C[C@H]2C)cc1	inactive	inactive	inactive
CC1(C)CC[C@]2(C(=O)O[C@@H]3O[C@H](CO)[C@@H](O[C@H]4OC[C@](O)(CO)[C@H]4O)[C@H](O)[C@H]3O)CC[C@]3(C)C(=CC[C@H]4[C@@]5(C)C[C@@H](O)[C@H](O)[C@@](C)(CO)[C@@H]5[C@H](O)C[C@]43C)[C@@H]2C1	inactive	inactive	inactive
COc1ccc(NC(=O)Nc2ccc3c(c2)C(=O)N([C@@H](C)CO)C[C@@H](C)[C@H](CN(C)Cc2ccc(C(F)(F)F)cc2)OCCCC[C@@H](C)O3)cc1	inactive	active	inactive
CN(C)c1ccc(NC(=O)CN)cc1	inactive	active	inactive
C/N=C1/S[C@@H]2CS(=O)(=O)C[C@@H]2N1C	inactive	inactive	inactive
Cc1noc(C)c1S(=O)(=O)Nc1ccc2c(c1)C(=O)N([C@H](C)CO)C[C@@H](C)[C@H](CN(C)Cc1ccccc1)OCCCC[C@@H](C)O2	inactive	inactive	inactive
C[C@H]1CN([C@@H](C)CO)C(=O)c2cccc(NC(=O)c3ccncc3)c2O[C@H]1CN(C)S(=O)(=O)c1ccc(F)cc1	inactive	inactive	inactive
C[C@@H]1CN([C@H](C)CO)C(=O)c2cccc(NS(=O)(=O)c3ccc(Cl)cc3)c2O[C@@H]1CN(C)Cc1ccc(-c2ccccc2)cc1	inactive	inactive	inactive
Cc1noc(C)c1NC(=O)N(C)C[C@@H]1OCCCC[C@H](C)Oc2ccc(NS(=O)(=O)c3ccc(Cl)cc3)cc2C(=O)N([C@@H](C)CO)C[C@@H]1C	inactive	inactive	inactive
C[C@@H]1CN([C@H](C)CO)C(=O)c2cc(NC(=O)CCC(F)(F)F)ccc2O[C@@H](C)CCCCO[C@H]1CN(C)Cc1ccc(C(F)(F)F)cc1	inactive	inactive	inactive
COc1ccc2c3c(n(c2c1)C)[C@@H](CO)N(C[C@]13CN(C1)C(=O)Nc1cccc(c1)F)S(=O)(=O)C	inactive	inactive	inactive
C[C@@H]1CN([C@@H](C)CO)C(=O)CCCn2nncc2CO[C@H]1CN(C)S(=O)(=O)c1ccc(Oc2ccccc2)cc1	inactive	inactive	inactive
C[C@@H]1CCCCO[C@@H](CN(C)S(=O)(=O)c2ccccc2)[C@H](C)CN([C@@H](C)CO)C(=O)c2cc(NC(=O)NC3CCCCC3)ccc2O1	inactive	inactive	inactive
COc1ccc(cc1)S(=O)(=O)N1CC[C@]2(CC1)CN([C@H](CO)c1c2c2ccc(cc2n1C)OC)C(=O)CN(C)C	active	active	inactive
C[C@@H]1CN([C@H](C)CO)C(=O)c2cc(NC(=O)CCC(F)(F)F)ccc2O[C@@H]1CN(C)C(=O)Nc1cccc2ccccc12	inactive	inactive	inactive
COc1ccc(S(=O)(=O)N(C)C[C@@H]2OCCCC[C@@H](C)Oc3ccc(NC(=O)C4CCCCC4)cc3C(=O)N([C@@H](C)CO)C[C@@H]2C)cc1	inactive	inactive	inactive

Structure (SMILES)	cytotoxicity call [1]	cytotoxicity call [2]	growth inhibition call [3]
Cc1cc(O)n(CCCO)c(=O)c1C#N	inactive	inactive	inactive
O=C1N[C@@H](Cc2c[nH]c3ccccc23)COC(=O)[C@@H](Cc2ccc(F)cc2)CCC=CC[C@H]1CC(=O)N(CCO)Cc1ccccc1	inactive	inactive	inactive
COCC(=O)Nc1ccc2c(c1)OC[C@H](C)N(Cc1ccccc1F)C[C@H](C)[C@H](OC)CN(C)C2=O	inactive	inactive	inactive
C[C@@H]1CN([C@@H](C)CO)C(=O)c2cc(-c3ccncc3)cnc2O[C@H]1CN(C)S(=O)(=O)c1ccc(F)cc1	inactive	inactive	inactive
CC(C)NC(=O)Nc1ccc2c(c1)C(=O)N([C@H](C)CO)C[C@H](C)[C@@H](CN(C)S(=O)(=O)c1cn(C)cn1)OCCCC[C@H](C)O2	inactive	inactive	inactive
Cc1ncc(CO)c(/C=N/O)c1O	inactive	inactive	inactive
COc1ccc(S(=O)(=O)Nc2ccc3c(c2)C(=O)N([C@H](C)CO)C[C@H](C)[C@@H](CN(C)Cc2ccccc2)OCCCC[C@H](C)O3)cc1	inactive	inactive	inactive
COc1ccc(NC(=O)Nc2ccc3c(c2)C(=O)N([C@@H](C)CO)C[C@H](C)[C@@H](CN(C)C(=O)Nc2ccc(C(F)(F)F)cc2)OCCCC[C@H](C)O3)cc1	inactive	inactive	inactive
C[C@H](NC(=O)C[C@H]1C=C[C@H](NC(=O)CN2CCOCC2)[C@H](CO)O1)c1ccccc1	inactive	inactive	inactive
CC(C)NC(=O)N(C)C[C@H]1Oc2ccc(NC(=O)CCCN(C)C)cc2C(=O)N([C@@H](C)CO)C[C@@H]1C	inactive	inactive	inactive
C[C@H](CO)N1C[C@H](C)[C@H](CN(C)CC2CC2)Oc2c(NS(=O)(=O)c3cn(C)cn3)cccc2C1=O	inactive	inactive	inactive
O=c1[nH]c(=O)n([C@@H]2C[C@@H](O)[C@@H](CO)O2)cc1F	inactive	inactive	active
COc1ccc2c3c(n(c2c1)C)[C@@H](CO)N(C[C@]13CCN(CC1)S(=O)(=O)C)C(=O)CN(C)C	inactive	inactive	inactive
C[C@H](CO)N1C[C@H](C)[C@H](CN(C)C(=O)Nc2cccc3ccccc23)Oc2ccc(NC(=O)Nc3cccc4ccccc34)cc2CC1=O	inactive	inactive	inactive
CO[C@@H](C(=O)N(C)C[C@@H]1OCc2ccccc2-c2c(n(C)c3ccccc23)C(=O)N([C@H](C)CO)C[C@H]1C)c1ccccc1	inactive	inactive	inactive
C[C@H](CO)N1C[C@H](C)[C@H](CN(C)S(=O)(=O)c2ccccc2)Oc2cc(C#Cc3ccncc3)ccc2S1(=O)=O	inactive	active	inactive
CCNC(=O)c1coc(C)n1	inactive	inactive	inactive
Cn1cncc1CN1CCO[C@]2(COCCN(S(C)(=O)=O)C2)C1	inactive	inactive	inactive
C[C@H]1CN([C@@H](C)CO)C(=O)c2c(c3ccccc3n2C)-c2ccccc2CO[C@@H]1CN(C)S(=O)(=O)c1ccc(Cl)cc1	inactive	active	inactive
O=C(c1cccnc1)N1C[C@@H]2[C@H](c3ccccc31)[C@H](CO)N2C(=O)CN1CCOCC1	inactive	inactive	inactive
O=C(C[C@H]1CC[C@H]2[C@@H](COC[C@H](O)CN2C(=O)c2cnccn2)O1)N1CCN(c2ccccc2)CC1	inactive	inactive	inactive
C=CCOC(=O)N(C)C[C@@H]1Oc2ccc(NC(=O)OCC3c4ccccc4-c4ccccc43)cc2C(=O)N([C@H](C)CO)C[C@H]1C	inactive	inactive	inactive
CS(=O)(=O)NC[C@@H]1OC[C@@H]2CN(C(=O)c3ccnnc3)CC[C@@H]21	inactive	inactive	inactive
CC(C)/C(=N/O)c1ccccc1	inactive	inactive	inactive
CC1(C)CCC(c2ccc(Cl)cc2)=C(CN2CCN(c3ccc(C(=O)NS(=O)(=O)c4ccc(N[C@@H](CCN5CCOCC5)CSc5ccccc5)c(S(=O)(=O)C(F)(F)F)c4)cc3)CC2)C1	active	active	inactive
C[C@H](CO)N1C[C@H](C)[C@H](CN(C)CC2CCCCC2)Oc2ccc(NC(=O)CCN3CCOCC3)cc2C1=O	inactive	inactive	inactive
C[C@@H]1CCCCO[C@H](CN(C)C(=O)NC2CCCCC2)[C@H](C)CN([C@H](C)CO)C(=O)c2cc(NS(=O)(=O)c3ccc(Cl)cc3)ccc2O1	inactive	active	inactive
